# Measurements published in the supplement of paper PMC11417369.
# ± gives the standard deviation of the averaged measurements. Some of the results follow.
# Tested on: PfAP2-LT AP2 domain (GST-tagged)
# Test: gcPBM binding intensity (ln(normalized median fluorescence intensity)); higher = stronger DNA binding
# How it was run: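 After 1 h on an Agilent 4 × 180k array of primer-extended double-stranded 36-bp intergenic genomic probes and negative controls, bound GST-tagged P. falciparum DNA-binding domains were detected with Alexa488 anti-GST antibody and scanned at 488 nm. The domains had been expressed in E. coli, and binding took place in 1× PBS with 1% milk, 0.2 mg/ml BSA, 0.5% salmon testes DNA and 0.03% Triton X-100. Binding intensity is the highest Masliner-normalised natural-log median intensity across replicate spots of either probe orientation.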
row,Sequence,gcPBM binding intensity (ln)
1,AAAAAGTAGTAAAACAGTACAGTATTTATGCCTATT [XGTACX_site6434],9 ± 0.45
2,AAAAAAAAAAAAAGTACACACTTTTGCGTACATGTA [CACACA_site7449],8.89 ± 0.43
3,TAAAAAAAATAGTCAAGTACATAAGAAGGGAAGAAA [XGTACX_site8733],8.84 ± 0.49
4,TTATTCATATTATCATGTACTTATATATATTGTCAT [XGTACX_site2231],8.94 ± 0.46
5,ACTAAAAGATATATAATTTCTTTCTTATTTATTTTT [CACACA_negctrl_site842],8.32 ± 0.59
6,TTTAATTTTTTTAATTCACACATTATTCCATCCTTT [CACACA_site5480],8.78 ± 0.54
7,AATAAATAAGCAACATGTACATACAAATATATACAT [XGTACX_site8529],9.12 ± 0.38
8,ATTTTCCATTGTGCTACACACAACGGTTCGCAATAA [CACACA_site2974],9.07 ± 0.4
9,ATCTAATAAAAATACACACACATATGATTTGTGAAT [CACACA_site1867],9.22 ± 0.3
10,TTTTGTTTATTATGATTCAAAATGATTTTATCTTTG [TGCATGCA_negctrl_site425],8.49 ± 0.48
11,TATTATATATATAAATGTACTTATTTTAATTCCCCT [XGTACX_site8638],8.54 ± 0.47
12,AAAAAAACATGAAACACACACAAATATTTATTTATA [CACACA_site6967],9.18 ± 0.37
13,TCTTTTAAAAAAAAAGGAGGAACATAAAAAGTAGAA [XGTACX_negctrl_site272],8.52 ± 0.54
14,ATATAATTAAAATGCTCACACACATAAAAAAAAATT [CACACA_site2148],9.12 ± 0.42
15,TACATAATACATATAACACACACAATTATACATAAA [CACACA_site9060],9.47 ± 0.21
16,ATAATTACAAAATAAACACACATATAGATTTATATG [CACACA_site6343],8.83 ± 0.38
17,CACATATATATGTGTGCATGTTGTATTATATATTTA [TGCATGCA_site632],9.93 ± 0.26
18,ATTTTATTTTTTAAAGGTACAGTTACAGCTTATATA [XGTACX_site7513],8.57 ± 0.46
19,GTACATATATACATTACACACGGTTTGATTTAAAAA [CACACA_site3379],8.98 ± 0.41
20,TAATATATTAACATGGGTACATATTATTTCATGTGT [XGTACX_site5985],9.02 ± 0.47
21,ATATTTAAATGTAATACATGCAAATTTGAACATTTT [TGCATGCA_site736],8.85 ± 0.46
22,AAAAAAAAAAAAATCACACATATGTATTTATATATA [CACACA_site5790],8.62 ± 0.33

row,Sequence,gcPBM binding intensity (ln)
1,AAAAATTTAAGTGGGGGTACATTTTTTTAACACCTT [XGTACX_site1093],9.09 ± 0.26
2,AACAAACACGGACACACACACACACTAGAATGATTA [CACACA_site5364],10.2 ± 0.31
3,TGTATAAGTATTAATACACACACAAAATAATAAAAA [CACACA_site9156],9.36 ± 0.4
4,TACTTACATTATTTATTTATATAAAAAGTTAATTAT [XGTACX_negctrl_site433],8.32 ± 0.43
5,ATAATTAACAAATACACACACACACCCCCACAAAAA [CACACA_site518],10.5 ± 0.26
6,AGTATTCATAAAAATACACACATGGAAAAATAAACT [CACACA_site6796],9.23 ± 0.33
7,TATATATTTTTTTTTTGTACTCACAATATATGTATG [XGTACX_site8024],8.86 ± 0.52
8,AAATTAAAATATAATACACACATAAAAAAAAAAAAA [CACACA_site4183],8.95 ± 0.52
9,AATTTTTTATATGTCACACATTTATTATTATTATTA [CACACA_site4198],8.83 ± 0.48
10,TGTAATATAAAATTTTGTACTCAAAAATTTATATAT [XGTACX_site3252],8.32 ± 0.36
11,ACTTATAAAAACATATACCCCATCGCATTTTTTCCA [XGTACX_negctrl_site177],8.87 ± 0.18
12,TTCCAAACCTCATTATGGAAAATAAAAAAATAAAAA [XGTACX_negctrl_site17],8.31 ± 0.49
13,TTCCAAAAAGTTATTACACACATATGTGCACATATA [CACACA_site6465],9.09 ± 0.35
14,ATAAAATATTTTTGAACATGCAGGTAAAAAATAAAA [TGCATGCA_site1019],8.69 ± 0.5
15,AGAATATTATATTATGCATGCATATAGAAAAATATA [TGCATGCA_site302],8.84 ± 0.31
16,TATATTTATAGGTACACACACACATATAAATAAATA [CACACA_site6345],9.64 ± 0.25
17,TTTATTAGTAATTATACACACATATAAAATGAATAA [CACACA_site6754],8.6 ± 0.54
18,AAAAAAAAAAAAAACACACACATATATATATATATA [CACACA_site1891],10.1 ± 0.37
19,ATAAAATTATATTTTGCATGCAGGCCTTTTTCTTAA [TGCATGCA_site1030],9.07 ± 0.42
20,ATATATTTTTTGAATACACACATATTATAGGTAATA [CACACA_site6709],8.82 ± 0.35
21,TAGTAGTTATCACTAACATGCAATAATATTATTTAA [TGCATGCA_site161],8.6 ± 0.42
22,CTATTTATTTTTGATGCATGCCAAATATAGAAAAAA [TGCATGCA_site368],8.44 ± 0.38

row,Sequence,gcPBM binding intensity (ln)
1,CGTATAAATATACGTGCATGTAACTTTTTCTATATT [TGCATGCA_site981],8.84 ± 0.45
2,TGACTGTAGATATTTTGTACATAACCTAATATATAT [XGTACX_site970],8.73 ± 0.4
3,ATAATATAATACGAAGGTACACATTTTCTTAATATA [XGTACX_site7947],8.77 ± 0.52
4,TACAGTTCAATGAAGGTGCAATTAATATATAAAATA,8.77 ± 0.46
5,TTTTTTTTTTTTTTTTGTACACATAATATGAATAAT [XGTACX_site2661],8.57 ± 0.32
6,ATAACATATATATATACACACACATATATATATGAA [CACACA_site7983],9.28 ± 0.24
7,TTATGTACAATTTCTTCTTTCTTTTTTCCTAAAGAC [CACACA_negctrl_site1193],8.52 ± 0.49
8,TTTTTTTTTCTTTTCAAACACACAATTGGTATATAT [CACACA_site3321],8.88 ± 0.46
9,ATATTTTTATTAGTAGTGCAATTTAGTGTATATATA [GTGCAC_site9542],8.68 ± 0.41
10,TCATTTCACAGACACACACACACAATATATTTCCTT [CACACA_site9295],9.92 ± 0.42
11,AAAAAAAAAATTAAAACATGCATAAATAAATATATT [TGCATGCA_site866],8.74 ± 0.45
12,TATGTGTAATATTTTTGTACAGAAAAAAAAAAAAAA [XGTACX_site7075],8.54 ± 0.41
13,AAAAAAAAAAAAAACACACACATGCACATCATATTA [CACACA_site4467],9.29 ± 0.28
14,TATTACTATGTTATAACTTTTTTAAACGTGATCATA [TGCATGCA_negctrl_site128],8.56 ± 0.31
15,TATTTAAAAAGAAAAAAAAAAAAAAAAATACATATA [CACACA_negctrl_site164],8.31 ± 0.52
16,AAAAAAAAAAAATATACACACTAATATATTTTTTTA [CACACA_site4604],8.59 ± 0.5
17,TATTAAATTTATCGGAGTACATTTAAATGTATATAC [XGTACX_site7975],8.69 ± 0.3
18,ATATACTTATATATTGCACACATCTAATATTTTGAA [CACACA_site3165],9.01 ± 0.25
19,TATAATATGTTTGATGGTACACGTAAACACCTTGCA [XGTACX_site1643],8.76 ± 0.49
20,ATAACTAAATTATATTGTACAAAATAATTATATATT [XGTACX_site1188],8.65 ± 0.29
21,CATATCAAAAAAAAATGTACACGTATATACAATACA [XGTACX_site2660],8.86 ± 0.51
22,TATTATATATATAAATGTACATATTATTTTTCTTTT [XGTACX_site8670],8.59 ± 0.51

row,Sequence,gcPBM binding intensity (ln)
1,GTATTTTTTTTCTTTTGTACATATATATAAAGAATA [XGTACX_site4569],8.55 ± 0.38
2,AAGAATTTTCGATTTGCACACATTTGTAAAATAAAA [CACACA_site2354],8.74 ± 0.38
3,ATACACGTTTTACAATGTACAGAAAGTATACATAAT [XGTACX_site4585],8.98 ± 0.49
4,TTTAATCAACAAAATCTACACACTAATATGAAATAT [CACACA_site9250],8.71 ± 0.39
5,TAATACTTAATGAACACATGCACATATACATAGTAT [TGCATGCA_site496],8.82 ± 0.47
6,TGTTTCTAAGAATTTACACACAAAATATTTCTACAT [CACACA_site7846],9.02 ± 0.45
7,AAAAAAAAAAATTGCACACAAAAAAAAAAAAAAAAA [CACACA_site2073],8.73 ± 0.64
8,TTAAAAATTAAAAGTAGTACATATAATATAAACATT [XGTACX_site424],8.63 ± 0.4
9,TTTTTTTTTTTTTTTTGTACATATATATAAAAAATA [XGTACX_site2772],8.12 ± 0.39
10,AATTATACTCACGTTACACACACACTAGATATATAT [CACACA_site6133],9.67 ± 0.27
11,TAATATTACATTTATTGTACTTTGTTTTTATTTTAT [XGTACX_site1605],9.27 ± 0.45
12,ATTGAAAAAATACAATGTACATAGTAATACAAAGAA [XGTACX_site4142],9.18 ± 0.42
13,CCCACAATGGTTTATATACACACTGTTGCAAATTCT [CACACA_site3066],8.93 ± 0.36
14,TTTATTCTAAAATATTAAAAATGATTTGTTTTTTCA [CACACA_negctrl_site1751],8.05 ± 0.42
15,TTATAAAAAAAAAAAAAAAAAAAAACCAATATAATA [CACACA_negctrl_site968],8.31 ± 0.63
16,ATATGAACATTAAAAAAGTAAGGTATTCTCCCCTCT [CACACA_negctrl_site1299],8.72 ± 0.32
17,GTATTATAAAAAGGAAGTACATATATACATATTATA [XGTACX_site1271],8.77 ± 0.39
18,CTTAAATCCATAATATGTACTTAAAAAGAAAAAATA [XGTACX_site4765],8.24 ± 0.47
19,ATAATTATACAAAAGCGTACACGATATAAATCTACG [XGTACX_site8115],8.79 ± 0.45
20,AGACAATTTTTTAGTACACACATATAGATATATAAA [CACACA_site6832],8.75 ± 0.42
21,ATGTGATAATTTAGGAGTACTGTCATAAGCATTTCT [XGTACX_site3091],8.76 ± 0.4
22,TTATAAATTTTTAATAGTACATAAAATTAAAGGTAA [XGTACX_site760],8.3 ± 0.41
